The source of these data is article PMC11369174 (Molecular Systems Biology, 2024).

Where no end group is shown, it is not given here.

The Kd is a measure of binding affinity in units of concentration.

In the test the target is T1, FITC-NFE2L1 (also: FITC label, position not given here).
T1 chain: LLVDGETGESFPAQVP
The test can be described thus: fluorescence polarisation; saturation binding: dilution series of the protein domain added to 10 nM FITC-labelled peptide; 50 mM sodium phosphate pH 7.4, 0.05% Tween (protein dialysed in 50 mM sodium phosphate with 1 mM DTT; CASK kinase domain with 100 mM NaCl in addition); quadratic fit; technical triplets. The following applies: both partners purified. For orientation: Fluorescence polarisation rises when a labelled molecule tumbles more slowly, as on binding a larger partner.

B1: Kelch-like ECH-associated protein (KEAP1) KELCH domain (domain or fragment)
chain: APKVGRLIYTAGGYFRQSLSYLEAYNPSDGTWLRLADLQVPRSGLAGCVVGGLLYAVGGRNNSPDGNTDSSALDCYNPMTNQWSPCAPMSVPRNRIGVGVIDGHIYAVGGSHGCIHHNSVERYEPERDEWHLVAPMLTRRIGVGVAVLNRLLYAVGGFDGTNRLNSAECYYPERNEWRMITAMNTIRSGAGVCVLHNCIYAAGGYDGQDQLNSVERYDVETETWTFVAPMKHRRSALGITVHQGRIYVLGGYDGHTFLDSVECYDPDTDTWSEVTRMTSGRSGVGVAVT
Take B1: the Kd turned out to be 8 nM.
